Data published in PubChem BioAssay AID651820 (National Center for Advancing Translational Sciences (NCATS), 2012).
In all, about 340,000 compounds went through this assay and about 12,000 (3.5%) were called active. This list was built around the results that the source calls inconclusive (neither active nor inactive); the mix of calls is not that of the screen. Calls come from the whole dose curve; as a rule, active = well fitted inhibition curve with a large enough effect; inconclusive = small, poorly fitted or top-dose-only effect, or another doubt; inactive = no such curve, though single readings can be large or run the other way. Potencies of inconclusive entries are left out as doubtful fits.

Experiment: qHTS Assay for Inhibitors of Hepatitis C Virus (HCV)
Conditions: Huh7.5.1 HCVcc-Cre (HCVcc is cell-culture hepatitis C virus) infection, luciferase reporter, 44 h; series mostly up to 41.8 µM
How it was run: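 After 44 h co-culture of compound, cells and HCVcc-Cre (~0.5 moi), substrate is added for 15 min at room temperature and luciferase measured over 15 sec. Cells were seeded at 1,000/well and pre-cultured 4 h.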
Potency is the fitted concentration of half-maximal effect; tags give direction and shape of the fitted curve.

Question: Which Potency does the source give for `COc1cccc(CNC(=O)C2CCN(S(=O)(=O)N3CCCC3)CC2)c1` here?
Answer: inconclusive [inhibitor, partial curve]

Question: With `CCOC(=O)c1sc(NC(C)=O)nc1-c1ccccc1` as the compound, how does the Potency read?
Answer: inconclusive [inhibitor, partial curve, poor fit]

Question: Which Potency does the source give for `CN1C/C(=C/c2ccsc2)C(=O)/C(=C/c2ccsc2)C1` here?
Answer: inconclusive [inhibitor, single point]

Question: With `COc1ccc(CN(Cc2cc3cccc(C)c3[nH]c2=O)C(=O)N(C)C)cc1` as the compound, how does the Potency read?
Answer: inconclusive [inhibitor, single point]

Question: Which Potency does the source give for `CCOC(=O)C1C(=O)C(C(=O)OCC)C(c2cccnc2)NC1c1cccnc1` (stereo not given) here?
Answer: inactive

Question: With `CC(C)c1nnc(NC(=O)C2CCCO2)s1` (stereo not given) as the compound, how does the Potency read?
Answer: inactive

Question: For `CCCOc1ccc(-c2cc3onc(-c4ccccc4)c3c(=O)n2C)cc1`, which Potency is on record?
Answer: inconclusive [inhibitor, full curve]

Question: For `COC(=O)C(NC(=O)COc1ccccc1)(Nc1nc2c(s1)CCCC2)C(F)(F)F` (stereo not given), which Potency is on record?
Answer: inactive

Question: For `CC(C)c1nc(SCC(=O)Nc2cccc(C(F)(F)F)c2)c2c(=O)n(C)c(=O)n(C)c2n1`, which Potency is on record?
Answer: inconclusive [inhibitor, full curve]

Question: Which Potency does the source give for `CC1CN(c2nn3c(=O)c4ccccc4nc3c3ccccc23)CC(C)O1` (stereo not given) here?
Answer: inconclusive [inhibitor, partial curve, poor fit]

Question: With `COC(=O)c1ccc(CNC(=O)c2sccc2-c2ccccc2)cc1` as the compound, how does the Potency read?
Answer: inconclusive [inhibitor, single point]

Question: With `CN(c1ccccc1)S(=O)(=O)c1cccc(NC(=O)c2ccc3ncsc3c2)c1` as the compound, how does the Potency read?
Answer: active: 11.2 µM

Question: With `COc1ccccc1NS(=O)(=O)c1cc(NC(=O)c2sccc2C)ccc1N1CCOCC1` as the compound, how does the Potency read?
Answer: inconclusive [inhibitor, partial curve]

Question: For `N#Cc1cc(C#N)c(SCC(=O)N2CC(=O)Nc3ccccc32)nc1N`, which Potency is on record?
Answer: inconclusive [inhibitor, single point]

Question: Which Potency does the source give for `COc1cc(C)cc2oc(=O)c(CC(=O)N3CCN(C(=O)C4COc5ccccc5O4)CC3)c(C)c12` (stereo not given) here?
Answer: active: 10 µM

Question: With `Cc1ccnc(NC(=O)c2ccccc2NC(=O)c2ccccc2)c1` as the compound, how does the Potency read?
Answer: inconclusive [inhibitor, single point]

Question: With `CCCC[C@@H]1C=C(C(=O)O)[C@H](c2ccc(CC)cc2)N1S(=O)(=O)c1ccc(C)cc1` as the compound, how does the Potency read?
Answer: active: 0.562 µM

Question: Which Potency does the source give for `Cn1nccc1C(=O)NC1CCCc2c1cnn2-c1cc(F)cc(F)c1` (stereo not given) here?
Answer: inconclusive [inhibitor, single point]

Question: For `COc1cc2oc(=O)cc(-c3ccc(-c4ccc(CO)cc4)cc3)c2c(OC)c1OC`, which Potency is on record?
Answer: inconclusive [inhibitor, full curve, poor fit]

Question: Which Potency does the source give for `CCOC(=O)c1c(-c2ccccc2)csc1NC(=S)NC(=O)c1ccccc1` here?
Answer: inconclusive [inhibitor, single point]

Question: Which Potency does the source give for `Cc1ccc(C(=O)NCCNc2ccc(Cl)cc2[N+](=O)[O-])o1` here?
Answer: inconclusive [inhibitor, partial curve]

Question: With `O=C(NC1CCCCCCC1)C1CCN(c2nc3ccccc3o2)CC1` as the compound, how does the Potency read?
Answer: inconclusive [inhibitor, partial curve]

Question: Which Potency does the source give for `Cc1cc(C(=O)CSc2nnc(-c3ccco3)o2)c(C)n1C` here?
Answer: active: 11.2 µM

Question: For `O=C(CN1C(=O)c2ccccc2C1=O)NN1C(=O)c2ccccc2C1=O`, which Potency is on record?
Answer: inactive

Question: Which Potency does the source give for `Cc1nnsc1-c1onc(C)c1C(=O)O/N=C/c1ccc(Cl)cc1` here?
Answer: inactive

Question: With `CCCSc1nc(N2CCCC2)c2c(c1C#N)CC(C)(C)OC2` as the compound, how does the Potency read?
Answer: inconclusive [inhibitor, full curve]

Question: For `CCOCCOC(=O)C1=C(C)NC2=C(C(=O)CC(c3cccs3)C2)C1c1ccsc1` (stereo not given), which Potency is on record?
Answer: inconclusive [inhibitor, partial curve, poor fit]

Question: With `N/C(=N\OC(=O)c1cccc(Br)c1)c1ccccc1` as the compound, how does the Potency read?
Answer: active: 11.2 µM

Question: For `CS(=O)(=O)N1CCN=C1SCc1ccc(Br)cc1`, which Potency is on record?
Answer: inactive

Question: For `COc1cccc(NC(=O)Cn2c(CCC(=O)O)ccc2-c2cccs2)c1`, which Potency is on record?
Answer: inactive

Question: Which Potency does the source give for `O=C(c1ccco1)N1CCN(/C(=N/S(=O)(=O)c2cccs2)c2ccccc2Cl)CC1` here?
Answer: inactive

Question: Which Potency does the source give for `Cc1ccc(NC(=O)N2CCC(=O)N2)cc1` here?
Answer: inactive

Question: With `Cc1ccc2[nH]c3c(c2c1)CCCC3=O` as the compound, how does the Potency read?
Answer: active: 10 µM

Question: With `COc1ccc(NC(=O)Cn2nnc(C(=O)NCCc3ccc(OC)c(OC)c3)c2N)c(OC)c1` as the compound, how does the Potency read?
Answer: inconclusive [inhibitor, full curve]

Question: With `CCc1cccc(C)c1NC(=O)COC(=O)c1cc([N+](=O)[O-])ccc1N1CCOCC1` as the compound, how does the Potency read?
Answer: active: 10 µM

Question: With `N#CC(c1ccccc1)N(CCCCl)C(=O)c1ccc(Br)cc1` (stereo not given) as the compound, how does the Potency read?
Answer: inconclusive [inhibitor, single point]

Question: For `Oc1ccc2ccccc2c1N=Nc1nccs1`, which Potency is on record?
Answer: active: 8.91 µM

Question: For `Cc1ccc2ncnc(Nc3cccc([N+](=O)[O-])c3)c2c1`, which Potency is on record?
Answer: inconclusive [inhibitor, partial curve]

Question: With `CN(Cc1cnc2nc(N)nc(N)c2n1)c1ccc(C(=O)NC(CCC(=O)O)C(=O)O)cc1C(F)(F)F` (stereo not given) as the compound, how does the Potency read?
Answer: inconclusive [inhibitor, partial curve, poor fit]

Question: For `O=C(NCc1cccs1)c1ccc(N2CCCCC2)nc1`, which Potency is on record?
Answer: inconclusive [inhibitor, single point]

Question: For `Cc1cc(NC(=O)CSc2nnc(-c3c[nH]c4ccccc34)n2-c2ccc(F)cc2)no1`, which Potency is on record?
Answer: inconclusive [inhibitor, partial curve]

Question: For `COc1ccc(N2CCN(c3nc(Cl)nc(Nc4ccc(F)cc4)n3)CC2)cc1`, which Potency is on record?
Answer: inconclusive [inhibitor, single point]

Question: Which Potency does the source give for `Cc1ccc(C(=O)Nc2nc(-c3ccccn3)cs2)s1` here?
Answer: inconclusive [inhibitor, partial curve]

Question: With `CCN(C=NC1=NN(c2cccc(C(F)(F)F)c2)CC1)CC` as the compound, how does the Potency read?
Answer: active: 11.2 µM

Question: With `CCOC(=O)c1cc(NC(=O)COc2ccc([N+](=O)[O-])cc2)cc(C(=O)OCC)c1` as the compound, how does the Potency read?
Answer: inconclusive [inhibitor, partial curve, poor fit]
